Laboratory results reported in the supplement of paper PMC7826260.
This is one part of the list. Cleavage of a single-stranded DNA pool by Rep nickase domains was read by sequencing (1 h at 37 °C, 3 µM enzyme); the outer parts of the 90-letter strands are left off. The score is log2 (uncut reads / reads without enzyme); the lower, the more was cut; hits are not called. Because reads are shares of a total, they shift together; values above 0 arise when much of the pool is cut.

Each sequence was assayed on T1, Rep nickase domain of Muscovy duck circovirus (assay: uncleaved DNA left, log2 of reads against the no-enzyme library (log2 ratio); higher = less cleavage (more negative = more Rep cleavage of the k-mer); sequences stand for … in CTCGTCCG…ACCGGAGA).
T1 sequence (residues 1-111, tag not shown): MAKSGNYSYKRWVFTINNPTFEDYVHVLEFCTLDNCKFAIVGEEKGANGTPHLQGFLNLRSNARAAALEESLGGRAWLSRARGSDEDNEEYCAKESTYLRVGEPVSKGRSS
Procedure: (§1)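 A pool of 90-nt single-stranded DNAs with seven random bases just before the constant AC of the nick site (name = the seven bases) was cut by 3 µM recombinant His6-SUMO-tagged Rep nickase domain (300 nM DNA, 50 mM HEPES pH 8.0, 50 mM NaCl, 1 mM MnCl2, 1 h, 37 °C, three replicates). Uncut DNA was amplified and sequenced.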

| Sequence | uncleaved DNA left (log2) |
| --- | --- |
| TATGGTA | 0.117 |
| CCGAAGG | 0.099 |
| GATACTT | -0.051 |
| GCCCAGG | 0.124 |
| ATTGTCT | -0.119 |
| GAGACAT | 0.144 |
| CCGACGT | 0.0695 |
| CGGTGCT | -0.329 |
| AGGTCTG | 0.0387 |
| TTGATTT | -0.0437 |
| AATATGT | 0.0614 |
| GGATTGT | -0.0731 |
| CGGACGG | 0.152 |
| TATACGA | 0.0494 |
| GCCGTCT | 0.00168 |
| ATTTTCA | -0.237 |
| GGCAACC | 0.196 |
| ATGACCT | -0.169 |
| TGGCTCG | -0.0562 |
| TTGAGTC | 0.00861 |

| Sequence | uncleaved DNA left (log2) |
| --- | --- |
| CGCAAAC | 0.00337 |
| GAGCTAC | -0.104 |
| GCGGCGC | 0.0411 |
| ACAGCAT | 0.0176 |
| ATGCTAA | -0.0397 |
| CCAATAG | 0.141 |
| GATATCT | 0.0525 |
| AAGATTG | -0.0676 |
| CATTCGA | -0.00649 |
| CACGTTC | -0.00625 |
| AGAGAAG | 0.107 |
| GTGACTC | 0.0417 |
| TGGGTTG | 0.0401 |
| TGGAAGA | 0.00434 |
| TCGATAT | 0.116 |
| CTACGAT | 0.067 |
| TGGTCGC | 0.0996 |
| TTATCAG | 0.0231 |
| CGGTCAC | -0.0347 |

These sequences were tested on T2, Rep nickase domain of banana bunchy top virus in the same assay as above.
T2 sequence (residues 1-94, tag not shown): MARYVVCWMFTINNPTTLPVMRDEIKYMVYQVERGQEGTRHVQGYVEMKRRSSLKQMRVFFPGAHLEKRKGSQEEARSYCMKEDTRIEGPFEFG
Procedure: as §1

| Sequence | uncleaved DNA left (log2) |
| --- | --- |
| TATGGTA | 0.0165 |
| CCGAAGG | 0.0177 |
| GATACTT | -1.37 |
| GCCCAGG | 0.0563 |
| ATTGTCT | -0.195 |
| GAGACAT | 0.157 |
| CCGACGT | 0.00474 |
| CGGTGCT | 0.0162 |
| AGGTCTG | 0.125 |
| TTGATTT | -0.22 |
| AATATGT | -0.193 |
| GGATTGT | 0.0896 |
| CGGACGG | 0.299 |
| TATACGA | 0.0111 |
| GCCGTCT | -0.0948 |
| ATTTTCA | -0.0914 |
| GGCAACC | 0.144 |
| ATGACCT | 0.0727 |
| TGGCTCG | -0.0705 |
| TTGAGTC | 0.0391 |

| Sequence | uncleaved DNA left (log2) |
| --- | --- |
| CGCAAAC | 0.00541 |
| GAGCTAC | -0.0268 |
| GCGGCGC | -0.0825 |
| ACAGCAT | 0.00238 |
| ATGCTAA | -0.0378 |
| CCAATAG | 0.187 |
| GATATCT | -0.336 |
| AAGATTG | -0.005 |
| CATTCGA | -0.0116 |
| CACGTTC | -0.0562 |
| AGAGAAG | 0.17 |
| GTGACTC | 0.105 |
| TGGGTTG | -0.0663 |
| TGGAAGA | 0.0262 |
| TCGATAT | -0.0366 |
| CTACGAT | -0.0531 |
| TGGTCGC | -0.00657 |
| TTATCAG | 0.143 |
| CGGTCAC | -0.00463 |

These sequences were tested on T3, Rep nickase domain of cabbage leaf curl virus in the same assay as above.
T3 sequence (residues 1-116, tag not shown): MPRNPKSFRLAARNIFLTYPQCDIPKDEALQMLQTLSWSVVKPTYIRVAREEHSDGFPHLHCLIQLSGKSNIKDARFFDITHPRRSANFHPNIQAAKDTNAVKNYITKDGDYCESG
Procedure: as §1

| Sequence | uncleaved DNA left (log2) |
| --- | --- |
| TATGGTA | 0.324 |
| CCGAAGG | 0.313 |
| GATACTT | 0.161 |
| GCCCAGG | 0.251 |
| ATTGTCT | -0.568 |
| GAGACAT | 1.02 |
| CCGACGT | 0.196 |
| CGGTGCT | -0.378 |
| AGGTCTG | 0.212 |
| TTGATTT | 0.0509 |
| AATATGT | -0.563 |
| GGATTGT | 0.321 |
| CGGACGG | 0.388 |
| TATACGA | 0.111 |
| GCCGTCT | 0.0717 |
| ATTTTCA | -0.169 |
| GGCAACC | 0.621 |
| ATGACCT | -0.00272 |
| TGGCTCG | -0.637 |
| TTGAGTC | -0.177 |

| Sequence | uncleaved DNA left (log2) |
| --- | --- |
| CGCAAAC | -0.156 |
| GAGCTAC | 0.0482 |
| GCGGCGC | -0.328 |
| ACAGCAT | -0.4 |
| ATGCTAA | -0.145 |
| CCAATAG | -0.489 |
| GATATCT | 0.22 |
| AAGATTG | 0.0142 |
| CATTCGA | -0.626 |
| CACGTTC | -0.0287 |
| AGAGAAG | -0.295 |
| GTGACTC | 0.528 |
| TGGGTTG | 0.13 |
| TGGAAGA | 0.293 |
| TCGATAT | 0.155 |
| CTACGAT | -0.0295 |
| TGGTCGC | -0.208 |
| TTATCAG | -0.676 |
| CGGTCAC | 0.27 |
